# Source: PMC4336329 (PLoS ONE, 2015)
# Screen size: about 310,000 compounds; about 2,200 (0.71%) showed an effect of 50% or more. Effects have a minus sign here. The list shows a part of the results.
# Target: human ether-à-go-go-related gene (hERG) potassium channel (human, UniProt Q12809)
# Assay: primary screen, population patch clamp on CHO cells stably expressing hERG
# Sequence of human ether-à-go-go-related gene (hERG) potassium channel (Q12809 whole entry, looked up): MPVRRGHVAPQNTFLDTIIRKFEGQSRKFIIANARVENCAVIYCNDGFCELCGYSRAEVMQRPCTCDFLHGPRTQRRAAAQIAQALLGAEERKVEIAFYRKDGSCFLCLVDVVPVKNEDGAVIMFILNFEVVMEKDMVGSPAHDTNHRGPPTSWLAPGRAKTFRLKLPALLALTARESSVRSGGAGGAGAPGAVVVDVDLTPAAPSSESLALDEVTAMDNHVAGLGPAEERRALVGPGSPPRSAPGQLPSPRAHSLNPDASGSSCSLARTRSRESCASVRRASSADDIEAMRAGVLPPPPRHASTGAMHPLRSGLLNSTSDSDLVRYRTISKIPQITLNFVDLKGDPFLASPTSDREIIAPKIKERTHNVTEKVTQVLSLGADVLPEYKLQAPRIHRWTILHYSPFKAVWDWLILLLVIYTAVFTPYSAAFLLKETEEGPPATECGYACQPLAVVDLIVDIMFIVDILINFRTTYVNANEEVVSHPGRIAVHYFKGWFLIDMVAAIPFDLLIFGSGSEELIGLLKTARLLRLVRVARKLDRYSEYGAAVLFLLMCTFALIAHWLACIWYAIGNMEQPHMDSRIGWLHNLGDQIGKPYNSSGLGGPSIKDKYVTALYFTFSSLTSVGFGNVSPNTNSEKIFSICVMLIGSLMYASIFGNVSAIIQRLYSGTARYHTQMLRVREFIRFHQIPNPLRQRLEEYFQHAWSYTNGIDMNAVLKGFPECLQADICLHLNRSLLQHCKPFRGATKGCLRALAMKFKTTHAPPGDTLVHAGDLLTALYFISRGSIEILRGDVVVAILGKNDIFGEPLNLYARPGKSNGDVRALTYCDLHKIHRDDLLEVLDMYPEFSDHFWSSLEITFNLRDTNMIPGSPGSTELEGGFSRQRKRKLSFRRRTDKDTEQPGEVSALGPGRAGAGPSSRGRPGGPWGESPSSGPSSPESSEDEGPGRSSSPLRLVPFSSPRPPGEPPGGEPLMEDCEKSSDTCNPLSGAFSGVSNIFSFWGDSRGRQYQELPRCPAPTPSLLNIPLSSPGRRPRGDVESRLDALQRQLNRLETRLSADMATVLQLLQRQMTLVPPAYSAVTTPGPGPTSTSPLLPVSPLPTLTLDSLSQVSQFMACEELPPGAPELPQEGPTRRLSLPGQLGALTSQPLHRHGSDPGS
row,Structure (SMILES),"hERG current change (%, negative = inhibition) at 1uM [%]"
1,COc1cc(/C(O)=C(\C#N)c2nc3ccccc3[nH]2)cc(OC)c1OC,15.7
2,Cc1cccc(N(C)S(=O)(=O)c2ccc3[nH]cc(C(=O)N4CCOCC4)c(=O)c3c2)c1,9.44
3,O=C(Cn1c(=O)oc2ccccc21)Nc1ccc(Cl)cc1Cl,12.7
4,COc1ccc(C2NC(=O)NC(C)=C2C(=O)OCc2ccccc2)cc1 (stereo not drawn),9.73
5,CCSc1nnc(NC(=O)COc2ccccc2)s1,7.91
6,N#CC1(c2ccccc2)CCN(C2CC(=O)N(c3cccc(F)c3)C2=O)CC1 (stereo not drawn),12.4
7,CCOc1cc(NC(=O)c2ccco2)c(OCC)cc1NC(=O)Cc1ccc(OC)c(OC)c1,-0.812
8,CCNC(=S)NNC(=O)c1ccc(OC(F)F)cc1,11.7
9,CC(=O)Oc1ccc(C2C3=C(CC(C)(C)CC3=O)Nc3cc4c(cc32)OCCO4)cc1 (stereo not drawn),6.71
10,Cc1ccc(C)c(S(=O)(=O)N/N=C/c2ccc(F)cc2)c1,3.02
11,O=C(CSC(=S)N1CCOCC1)c1ccccc1,6.91
12,C=CC[C@@H]1Cc2c(Br)ccc(Br)c2[C@@H](CC=C)N1.Cl,9.15
13,CC1=C(C)NC(=S)SC1,12.6
14,O=C(c1ccc2nc(Cc3cccc(Cl)c3)oc2c1)N1CCC(CO)CC1,11.3
15,Cl.O=C(c1ccc(Cn2cc(Cl)cn2)o1)N1CCN(Cc2ccc3c(c2)OCO3)CC1,-13.3
16,COC(=O)N/N=C/c1c[nH]c2ccccc12,17.1
17,CCOC(=O)c1ccc(NC(=O)NNS(=O)(=O)c2cc(OC)ccc2OC)cc1,69.9
18,CC1CCN(S(=O)(=O)c2ccc(C(=O)Nc3ncccc3O)cc2)CC1,7.17
19,Cc1cccc(C(C)C)c1NC(=O)CN1C(=O)NC(Cc2ccccc2)C1=O (stereo not drawn),6.57

row,Structure (SMILES),"hERG current change (%, negative = inhibition) at 1uM [%]"
1,C/C(CC(=O)N(C(C)C)C(C)C)=N\NC(=O)COc1ccc(Cl)cc1Cl,11.4
2,Cc1cc(NCc2ccccc2)n2ncnc2n1,7.03
3,CCOC(=O)CN1C(=O)N[C@@H](c2cccc(F)c2)C(C(=O)OC)=C1C,15.1
4,CCCn1c(=O)c2ccccc2n2c(SCC(N)=O)nnc12,11
5,Fc1ccc(-c2ccc(/C=N\n3cnnc3)o2)cc1Cl,9
6,COc1ccccc1NC(=O)Cn1cnc2sc(C(=O)NCc3ccco3)c(C)c2c1=O,14.2
7,Cc1ccc(-n2nnnc2SCC(=O)Nc2cccc(NC(=O)c3ccco3)c2)cc1C,5
8,COc1ccccc1C1=NC(c2ccc(C)cc2)N=C1C (stereo not drawn),-3.45
9,O=C(Nc1cnccn1)c1ccc(Cl)cc1,7.97
10,COc1cccc(-n2nnnc2S(C)(=O)=O)c1,-0.242
11,O=c1/c(=C\c2ccc3c(c2)OCO3)sc2n1CCCN=2,5.5
12,O=C(NC1CCCCC1)C(c1ccc(F)cc1)N(Cc1ccccc1)C(=O)CN1C(=O)c2ccccc2S1(=O)=O (stereo not drawn),16.6
13,COc1ccc(C(=O)NCC2CCCO2)cc1OC (stereo not drawn),7.51
14,CC(C)Cn1c(SCC(=O)NC(=O)Nc2ccc3c(c2)OCCO3)nc2ccccc2c1=O,7.58
15,O=[N+]([O-])c1cccc(-c2nc(-c3ccncc3)no2)c1,0.854
16,Cc1ccccc1N/N=C/c1ccc(N2CCOCC2)cc1,11.6
17,COc1ccccc1C(=O)N/N=C/C(C)=C/c1ccccc1,-27.2
18,C/C=C/c1ccc(OCCOCCOc2cccc3cccnc23)c(OC)c1,5.07
19,COc1ccccc1NC(=O)c1c[nH]c2ccccc12,15

row,Structure (SMILES),"hERG current change (%, negative = inhibition) at 1uM [%]"
1,O=C(CSc1ccc2nnc(-c3cccnc3)n2n1)Nc1ccc(F)cc1,-0.488
2,COc1ccc(NC(=O)CCN2CCN(S(=O)(=O)c3cc(Cl)ccc3OC)CC2)cc1,9.95
3,NC1=NC[C@@H](Cc2ccc(O)cc2)N1CCCCC1CCCCC1,8.18
4,COc1ccc(C(OC(=O)c2ccco2)C(=O)NC2CCCC2)cc1OC (stereo not drawn),9.39
5,Cc1ccccc1NC(=O)c1ccc(CN(c2ccccc2)S(=O)(=O)c2ccccc2)cc1,7.73
6,COc1ccc(OCCCC(=O)Nc2nccs2)cc1,16.7
7,O=C(CCCn1c(=S)[nH]c2cc3c(cc2c1=O)OCO3)NC1CC1,9.78
8,COC(=O)CSc1nnc(-c2ccc(S(=O)(=O)N3CCCC3)cc2)o1,19.6
9,Cc1ccc(O)c(C2=Nc3ccccc3N=C(c3ccco3)C2)c1,8.73
10,O=C1CCC(C(=O)N2CCC(CCO)CC2)CN1Cc1ccc(Cl)cc1 (stereo not drawn),-2.64
11,COc1ccc(-c2cc(C(=O)Nc3ccccc3SC)no2)cc1OC,-1.28
12,CCOC(=O)c1cccc(NC(=O)CCc2nnc3ccc(N4CCCCC4)nn23)c1,15
13,O=C(Nc1ccc(SC(F)F)cc1)c1ccc2nccnc2c1,3.35
14,CCCC1(C(=O)O)NC(c2ccc(OC)cc2O)C2C(=O)N(c3ccc(OC)cc3)C(=O)C21 (stereo not drawn),14.7
15,CC(=O)Nc1ccc(NC(=O)Cc2sc(C)nc2-c2ccc(C)cc2)cc1,-1.13
16,CCOCCCNC(=O)CCc1nnc2n(CCC(C)C)c(=O)c3ccccc3n12,4.7
17,O=C(NCCN1CCOCC1)c1cccc(S(=O)(=O)Nc2ccc(F)cc2)c1,5
18,CCC(C(=O)OCC(=O)Nc1c(Cl)cc(Cl)cc1Cl)c1ccccc1 (stereo not drawn),9.64
19,Cc1ccc(C)c(OCCC(=O)OCC(=O)N2c3ccccc3NC(=O)C2(C)C)c1,-6.56
